# Data as given in the antibiotic and cytotoxicity screens of Wong et al. (2023).
# The other results are listed elsewhere or left out.
# Key:
# HSkMC = human skeletal muscle cells; assay: cytotoxicity call (relative viability < 0.9); settings: 10 µM
# HepG2 = assay: cytotoxicity call (relative viability < 0.9); settings: 10 µM
# S. aureus RN4220 = assay: growth inhibition call (relative growth <= 0.2); settings: 50 µM
Compound,cytotoxicity call (HSkMC),cytotoxicity call (HepG2),growth inhibition call (S. aureus RN4220)
CO[C@@H]1CN(C)C(=O)c2ccc(NS(C)(=O)=O)cc2OC[C@H](C)N(C(=O)C2CCCCC2)C[C@H]1C,inactive,inactive,inactive
C[C@@H]1CN([C@H](C)CO)C(=O)c2cc(NS(=O)(=O)c3cn(C)cn3)ccc2O[C@@H](C)CCCCO[C@H]1CN(C)S(=O)(=O)c1ccccc1,inactive,inactive,inactive
Cn1cnnc1Sc1c([N+](=O)[O-])ncn1C,inactive,inactive,inactive
C[C@@H]1CCCCO[C@H](CN(C)S(=O)(=O)c2cccs2)[C@H](C)CN([C@@H](C)CO)C(=O)c2cc(NC(=O)Cc3ccccc3)ccc2O1,inactive,inactive,inactive
C[C@H](CO)N1C[C@H](C)[C@@H](CN(C)Cc2ccc(Cl)c(Cl)c2)Oc2ccc(NC(=O)Cc3cn(C)c4ccccc34)cc2C1=O,inactive,inactive,inactive
CN(C)C(=O)C[C@@H]1C=C[C@H](NC(=O)C2CCOCC2)[C@H](CO)O1,inactive,inactive,inactive
O=C(C[C@H]1C=C[C@H](NC(=O)Cc2ccccn2)[C@@H](CO)O1)NCCc1ccncc1,inactive,inactive,inactive
C[C@H](CO)N1C[C@H](C)[C@@H](CN(C)C(=O)NC2CCCCC2)Oc2ccc(NS(C)(=O)=O)cc2CC1=O,inactive,inactive,inactive
C[C@H](CO)N1C[C@H](C)[C@@H](CN(C)Cc2ccccc2)Oc2ccc(NC(=O)Nc3cccc4ccccc34)cc2CC1=O,inactive,active,inactive
COc1ccc(S(=O)(=O)N(C)C[C@H]2OCCCC[C@@H](C)Oc3ccc(NC(=O)Nc4cccc5ccccc45)cc3C(=O)N([C@H](C)CO)C[C@H]2C)cc1,inactive,inactive,inactive
CC(=O)Nc1cccc(O)c1,inactive,inactive,inactive
C[C@@H]1CN([C@H](C)CO)C(=O)c2cccc(NC(=O)c3cnccn3)c2O[C@H]1CN(C)Cc1ccc2c(c1)OCO2,inactive,inactive,inactive
C[C@@H]1CN([C@H](C)CO)C(=O)Cc2cc(NS(=O)(=O)c3ccc(Cl)cc3)ccc2O[C@@H]1CN(C)S(C)(=O)=O,inactive,inactive,inactive
C[C@H](CO)N1C[C@H](C)[C@H](CN(C)Cc2ccc(-c3ccccc3)cc2)Oc2c(NC(=O)c3ccc(-c4nccs4)cc3)cccc2C1=O,inactive,inactive,inactive
C[C@@H]1CCCCO[C@@H](CN(C)S(=O)(=O)c2cccs2)[C@@H](C)CN([C@H](C)CO)C(=O)c2cc(NC(=O)CCCCCC(=O)Nc3ccccc3N)ccc2O1,inactive,inactive,inactive
O=C(C[C@@H]1C[C@H]2c3cc(NS(=O)(=O)c4ccc(F)cc4)ccc3O[C@H]2[C@@H](CO)O1)NCc1cccnc1,inactive,inactive,inactive
Cc1ccc(S(=O)(=O)N(C)C[C@H]2Oc3ccc(NS(=O)(=O)c4ccccc4)cc3C(=O)N([C@H](C)CO)C[C@H]2C)cc1,inactive,inactive,inactive
CC(C)C#Cc1ccc2c(c1)O[C@H](CN(C)C(=O)c1cnccn1)[C@H](C)CN([C@H](C)CO)S2(=O)=O,inactive,inactive,inactive
CCN1CCN(CC(=O)Nc2ccc(-c3cccc4c(=O)cc(N5CCOCC5)oc34)c3sc4ccccc4c23)CC1,inactive,active,inactive
C[C@H](CO)N1C[C@H](C)[C@H](CN(C)C(=O)Nc2ccc3c(c2)OCO3)Oc2ncc(C#CC3(O)CCCC3)cc2C1=O,inactive,inactive,inactive
O=C(C[C@H]1CC[C@H]2[C@@H](COC[C@@H](O)CN2S(=O)(=O)c2ccc(Cl)cc2)O1)NCc1ccncn1,inactive,inactive,inactive
C[C@@H]1CN([C@H](C)CO)C(=O)c2cccc(NC(=O)CCCCCC(=O)Nc3ccccc3N)c2O[C@H]1CN(C)Cc1ccc(C(F)(F)F)cc1,inactive,inactive,inactive
OC[C@@H](O)[C@@H](O)[C@H](O)[C@H](O)CO,inactive,inactive,inactive
Cc1ccc(S(=O)(=O)Nc2ccc3c(c2)C(=O)N([C@@H](C)CO)C[C@@H](C)[C@H](CN(C)Cc2ccc(C(F)(F)F)cc2)OCCCC[C@H](C)O3)cc1,inactive,active,inactive
C[C@@H]1CCCCO[C@H](CN(C)Cc2ccc(Cl)c(Cl)c2)[C@H](C)CN([C@@H](C)CO)C(=O)c2cc(NC(=O)Nc3ccccc3)ccc2O1,inactive,active,inactive
